Experimental data from paper PMC5173251.
Results are given in words; binding and its absence hold for the method and conditions named. Binding seen in cells or lysates may run through a third protein. Some results given as binding are weak or reduced against the parent protein; the word gives no strength. Where a sequence is shown, tags or fusion partners need not be part of it.

T1: GST-134-264 (D. discoideum) (UniProt Q7KWK5)
T1 sequence: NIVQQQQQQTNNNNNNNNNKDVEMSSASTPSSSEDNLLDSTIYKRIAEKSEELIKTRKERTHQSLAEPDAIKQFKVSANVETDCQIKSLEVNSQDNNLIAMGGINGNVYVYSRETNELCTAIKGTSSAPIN

B1: GFP-DdBasic (aa 221-400) (domain or fragment, UniProt Q55ED4 221-400)
chain: TDFFEYRKKLREEATCFSVYERSPSPPKKGELEEIDDQFLSNKKKSKKSRRKSSSNSDSSSSDSDSDSSRSREKRKKSKSRKDKKKRKEKKKHQRKSSKRSSKYSDSDSDSDSSFSDSDYSDSDRSDSEGRSRKKRSKKRSKKRHDHHKESVHDASMWEEKVEQQTQTLSNRDIGPKPIS
B2: GFP-DdNKAP (full length DdNKAP, aa 1-510) (protein, UniProt Q55ED4 1-510)
chain: MSHRERDRDRDRDSDRDRDRNRYSRSRSRGSRSRSRSRSRSRDRNRNRDYNKDRSSNRDSYYNDRDYKKDRSSNRDRDYYDRDRNRDYKNSSSGSSSGGGGGGSGENYTVKSSSYRESNSNNSKVEIQKQENISKDYFIDNKGVNNSIERKDNIKNENNNNNSFDNRKAEFNNNSYGEKKEFDNNNNRNYHGGNSRYVNNNNNNNNNNYNNNNNKSNYNGTDFFEYRKKLREEATCFSVYERSPSPPKKGELEEIDDQFLSNKKKSKKSRRKSSSNSDSSSSDSDSDSSRSREKRKKSKSRKDKKKRKEKKKHQRKSSKRSSKYSDSDSDSDSSFSDSDYSDSDRSDSEGRSRKKRSKKRSKKRHDHHKESVHDASMWEEKVEQQTQTLSNRDIGPKPISEVQVGSYGGAMMPGEAEAIAQFVKENKRIPRRGEVGLTSEQIASFEETGYVMSGSRHRRMNAVRIRKESQVYSAEEQKALAMLNREEKAKRENRLLADFRDLINTKLQAD
B3: GFP-DdRS (aa 1-220) (domain or fragment, UniProt Q55ED4 1-220)
chain: MSHRERDRDRDRDSDRDRDRNRYSRSRSRGSRSRSRSRSRSRDRNRNRDYNKDRSSNRDSYYNDRDYKKDRSSNRDRDYYDRDRNRDYKNSSSGSSSGGGGGGSGENYTVKSSSYRESNSNNSKVEIQKQENISKDYFIDNKGVNNSIERKDNIKNENNNNNSFDNRKAEFNNNSYGEKKEFDNNNNRNYHGGNSRYVNNNNNNNNNNYNNNNNKSNYNG
B4: GFP-DdDUF926 (aa 401-510) (domain or fragment, UniProt Q55ED4 401-510)
chain: EVQVGSYGGAMMPGEAEAIAQFVKENKRIPRRGEVGLTSEQIASFEETGYVMSGSRHRRMNAVRIRKESQVYSAEEQKALAMLNREEKAKRENRLLADFRDLINTKLQAD

Molecular target: T1, GST-134-264 (D. discoideum)
Assay: pull-down; GST-Prp19 fusion proteins on Glutathione-Sepharose 4B beads, incubated 2 h with extracts of AX2 cells expressing GFP fusions (50 mM Tris-HCl pH 7.4, 100 mM NaCl, 1% NP 40, 0.1% SDS, 0.5% sodium deoxycholate); washed with 50 mM Tris-HCl pH 7.4, 100 mM NaCl; blot with GFP mAb K3-184-2; only the target purified

Binder	binding
B1	binds
B2	binds
B3	no binding
B4	no binding

Molecular target: GST-Prp19 (full length) (D. discoideum) (UniProt Q7KWK5)
Assay: as above

Binder	binding
B1	binds
B2	binds
B4	no binding

Molecular target: GST-Prp19-like (aa 64-133) (D. discoideum) (UniProt Q7KWK5)
Assay: as above

Binder	binding
B1	binds
B2	binds
B3	no binding
B4	no binding
